# The campaign covered roughly 94,000 compounds. About 20 (0.02%) were called active. This list was built around the results that the source calls inconclusive (neither active nor inactive); the mix of calls is not that of the screen. The call rests on the fitted dose curve; in most records, active means well fitted activation curve with a large enough effect; inconclusive means small, poorly fitted or top-dose-only effect; inactive means flat fitted curve, though single readings scatter. Potencies of inconclusive entries are left out as doubtful fits.
# Assay: qHTS of alpha-syn Inhibitors: NCGC Sytravon Library Screen; on growth rescue (activation): 0% is about no effect
# Conditions: S. cerevisiae alpha-synuclein toxicity rescue, BacTiter-Glo growth, 24 h; growth rescue (activation): at 46.1 µM (top of the series)
# Summary of the method: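 Growth restoration measured by BacTiter-Glo luminescence after 24 hr at 30 deg C; alpha-synuclein yeast, raffinose-pregrown to mid-log, were added at OD600=0.02 in galactose medium onto pinned compounds.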
# Potency means the concentration at half of the fitted maximal effect; tags describe the fitted curve by direction and shape.
SMILES,Potency,growth rescue (activation)
Cc1ccccc1NS(=O)(=O)c1ccc2[nH]cc(C(=O)NC(C)c3ccccc3)c(=O)c2c1 (stereo not drawn),inactive,
Cc1ccccc1NS(=O)(=O)CCCCC(Cl)(Cl)Cl,inactive,
COc1ccc(CNc2oc(-c3ccc(COc4ccc(Cl)cc4)o3)nc2C#N)cc1,inactive,
CCCCC(=O)OC1=C(C(=O)c2ccccc2)N(C)S(=O)(=O)c2ccccc21,"inconclusive [activator, single point]",
CCCCC(=O)OC1=C(C(=O)c2ccccc2)N(CC)S(=O)(=O)c2ccccc21,"inconclusive [activator, single point]",
Cc1noc(C)c1COc1ccccc1C(=O)N(C)CC(=O)Nc1cccc(F)c1,inactive,
Cn1cc(CCCC(=O)NCc2ccccc2Cl)c2ccccc21,"inconclusive [activator, single point]",
Cc1ccc(-c2ccc(CN3C(C(C)C)C(=O)N(Cc4cn(CCC5OCCCO5)nn4)CCS3(=O)=O)cc2)cc1 (stereo not drawn),,inconclusive: 149% [activator]
N#CC1c2ccccc2-c2ccccc2N1C(=O)c1ccccc1 (stereo not drawn),,inconclusive: 94.7% [activator]
Cc1cc(C)c(S(=O)(=O)NCCc2sc3nc(-c4ccc(F)cc4)nn3c2C)c(C)c1,"inconclusive [activator, single point]",
Cc1cn2c(=O)c(S(=O)(=O)Nc3ccc(OC(F)(F)F)cc3)c(C)nc2s1,"inconclusive [activator, single point]",
Fc1ccc(Nc2ncnc3sc4c(c23)CCC4)cc1,,inconclusive: 37.9% [activator]
COc1cc(OC)c(N(C)C(=O)c2c(C)oc3ncnc(N4CCCCC4)c23)cc1Cl,inactive,
O=S(=O)(c1ccc(F)cc1)N(CC(O)Cn1c2ccccc2c2ccccc21)c1ccccc1 (stereo not drawn),"inconclusive [activator, single point]",
Cc1ccc(Cl)cc1N1CCN(C(=O)c2cnn(C)c2C2CCN(C(=O)OC(C)(C)C)CC2)CC1,"inconclusive [activator, single point]",
Cc1cccc(NC(=O)C2CCCN2S(=O)(=O)c2ccc3nc(-c4ccccc4)[nH]c3c2)c1 (stereo not drawn),inactive,
COc1ccc(Cn2ccnc2SCC(=O)Nc2nc3ccccc3s2)cc1,"inconclusive [activator, single point]",
COc1cc2ncc3c(-c4ccc(C)cc4)nn(-c4ccc(F)cc4F)c3c2cc1OC,"inconclusive [activator, single point]",
COc1cccc(-c2nc(CS(=O)(=O)CC(=O)NCc3cccc(Cl)c3)c(C)o2)c1,inactive,
COc1ccc(-c2cn3nc(N4CCCC(C(=O)NCc5ccc(Cl)cc5)C4)sc3n2)cc1 (stereo not drawn),inactive,
CO/N=C/c1cn(-c2ccc(Cl)cc2)nn1,inactive,
CC(=O)NNC(=S)NC(=O)c1ccccc1,,inconclusive: 44.9% [activator]
CN(Cc1ccc(Cl)cc1Cl)C(=O)Cc1ccc(S(=O)(=O)N2CCOCC2)s1,inactive,
Cc1nc(S(=O)(=O)N2CCN(c3cccc(Cl)c3)CC2)cn1C,inactive,

SMILES,Potency,growth rescue (activation)
COc1ccccc1OCc1nc2ccccc2n1Cc1ccccc1,,inconclusive: 30.4% [activator]
O=C(Cn1c(SCC(=O)Nc2ccc(F)cc2)nc2ccccc21)NCc1ccccc1Cl,inactive,
CC(Oc1ccc(F)cc1)C(=O)Nc1nc(-c2ccccn2)cs1 (stereo not drawn),,inconclusive: 49.2% [activator]
Cc1ccccc1CNCc1c(C(=O)O)c(C)n(Cc2ccc(F)cc2Cl)c1C,inactive,
COc1ccc(C(=O)Nc2nc3ccccc3n2CCOc2ccc(Cl)cc2)cc1,"inconclusive [activator, single point]",
Cc1ccc2nc(NC(=O)CSc3nccn3Cc3ccc(F)cc3)sc2c1,"inconclusive [activator, single point]",
COc1ccc2nc(N(Cc3cccnc3)C(=O)COc3ccccc3)sc2c1,"inconclusive [activator, single point]",
O=C(Nc1ccc(F)c([N+](=O)[O-])c1)C1CCCO1 (stereo not drawn),inactive,
CCOC(=O)C1CCN(S(=O)(=O)c2ccc(N3CCCCS3(=O)=O)cc2)CC1,inactive,
COc1cc(OC)c(NC(=O)NCc2cccn2Cc2ccccc2)cc1Cl,inactive,
CCOc1cc(C(=O)OCc2cc(=O)n3nc(C4CC4)sc3n2)cc(OCC)c1OCC,inactive,
COc1ccc(S(=O)(=O)NCCc2sc(-c3cccc(C)c3)nc2C)cc1,"inconclusive [activator, single point]",
COC(=O)c1c(-c2cccs2)csc1NC(=O)c1cc(OC)c(OC)c(OC)c1,inactive,
CCCCSCCCNC(=O)C1CCC(CNS(=O)(=O)c2c(C)cc(C)cc2C)CC1 (stereo not drawn),inactive,
COc1cccc(C(=O)Nc2cccc(C(=O)OCc3cc(=O)n4c(C)csc4n3)c2)c1,inactive,
Cc1ccc(OCCCSc2nc(-c3ccc(C(C)(C)C)cc3)nc3cc(=O)[nH]n23)cc1C,inactive,
COc1ccc(C(=O)NC(c2ccc(Cl)cc2)c2cc(Cl)c3cccnc3c2O)cc1 (stereo not drawn),"inconclusive [activator, single point]",
Cc1cc(-c2ccc(S(=O)(=O)Nc3ccc(Cl)cc3C)cc2)on1,"inconclusive [activator, single point]",
O=C(O)c1ccc(/C=C2\COc3ccccc3C2=O)cc1,,inconclusive: 39.2% [activator]
CC1=C(C(=O)OC2CCCCCC2)C(c2cccc(Cl)c2)CC(=O)N1 (stereo not drawn),inactive,
Cc1nc2scc(C)n2c(=O)c1S(=O)(=O)Nc1cccc(C(F)(F)F)c1,active: 11.2 µM,
COc1ccccc1N1CCN(S(=O)(=O)CCNC(=O)COc2ccc(C(C)C)cc2)CC1,"inconclusive [activator, single point]",
CCNC(=O)COc1ccc(/C=C2\COc3ccccc3C2=O)cc1OC,,inconclusive: 38.8% [activator]
O=C(CSc1nc(Nc2ccc(F)cc2)c2ccccc2n1)c1ccc(F)cc1,"inconclusive [activator, single point]",

# Reference: PubChem BioAssay AID1347070 (National Center for Advancing Translational Sciences (NCATS), 2019)
